Over roughly 110,000 compounds, “z-score” has its median near -0.1; the highest 2% begin near 2. The list shows a part of the results.

For this assay, the target named is Metabotropic glutamate receptor 8 (Rattus norvegicus) (UniProt P70579). The assay can be described thus: rat mGluR8 modulators via GIRK flux, primary screen, cell-based, thallium flux, HTS (AID 488969). The following applies: HEK293 rat mGluR8, GIRK (G protein-gated inwardly rectifying potassium channel) thallium flux, FluoZin2; at 10 µM; stronger effect = higher value; submaximal glutamate (EC20) added with thallium.
UniProt P70579, sequence (P70579 whole entry, looked up): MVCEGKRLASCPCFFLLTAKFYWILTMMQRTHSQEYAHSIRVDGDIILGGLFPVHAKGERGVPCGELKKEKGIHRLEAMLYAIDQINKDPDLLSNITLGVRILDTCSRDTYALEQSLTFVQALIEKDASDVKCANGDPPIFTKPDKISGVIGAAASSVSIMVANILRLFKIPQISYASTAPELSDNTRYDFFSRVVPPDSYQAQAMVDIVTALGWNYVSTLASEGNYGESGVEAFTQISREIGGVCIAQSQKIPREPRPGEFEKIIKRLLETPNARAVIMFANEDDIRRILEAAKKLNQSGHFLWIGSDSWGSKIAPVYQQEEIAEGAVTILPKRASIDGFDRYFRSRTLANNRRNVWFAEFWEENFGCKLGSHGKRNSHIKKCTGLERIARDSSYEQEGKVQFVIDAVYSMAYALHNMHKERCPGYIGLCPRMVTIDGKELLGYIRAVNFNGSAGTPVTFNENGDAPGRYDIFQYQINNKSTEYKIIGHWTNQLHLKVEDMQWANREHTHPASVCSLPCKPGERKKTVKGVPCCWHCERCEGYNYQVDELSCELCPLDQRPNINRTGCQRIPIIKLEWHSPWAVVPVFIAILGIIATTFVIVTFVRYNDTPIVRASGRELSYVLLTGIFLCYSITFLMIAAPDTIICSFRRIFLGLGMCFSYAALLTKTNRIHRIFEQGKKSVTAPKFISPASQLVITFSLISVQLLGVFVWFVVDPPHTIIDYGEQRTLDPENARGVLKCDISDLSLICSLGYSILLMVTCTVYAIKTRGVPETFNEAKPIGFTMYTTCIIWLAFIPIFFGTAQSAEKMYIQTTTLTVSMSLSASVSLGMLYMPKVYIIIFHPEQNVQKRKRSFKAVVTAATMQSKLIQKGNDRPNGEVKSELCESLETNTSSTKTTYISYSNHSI
Take `Cc1cccc(N(C)C(=O)c2coc(=O)c3ccccc23)c1`: the z-score was -0.042.

In the case of `Cc1c(OCc2ccc(C(=O)O)o2)ccc2c3c(c(=O)oc12)CCC3`, the z-score is -0.283. As for `Cc1c(N=Cc2ccc(Br)s2)cccc1[N+](=O)[O-]`, the figure is 0.237. As for `NS(=O)(=O)c1ccc(CNC(=S)NCc2ccc(Cl)cc2)cc1`, the z-score is -0.18. On to `CCOC(=O)c1ccccc1NC(=O)CSc1nnc(C(C)C)n1CC`, for which the z-score was -0.379. As for `CCOC(=O)c1sc(NC(=O)CSc2nc(C)cc(C)c2C#N)c(C#N)c1C`, the figure is -0.401.

For the molecule `CCOC(=O)C1=NOC(CNC(=O)C2=NOC(CNC(=O)c3c(-c4ccccc4Cl)noc3C)C2)C1` (stereo unspecified), the z-score is -0.0386.

In the case of `CC(=O)CSc1nnc(-c2cnccn2)n1-c1ccccc1`, the z-score turned out to be 0.0901. As to `N#CC1=C(N)Oc2n[nH]c(-c3ccc(F)cc3)c2C1c1cccc(OC(=O)N2CCOCC2)c1` (stereo unspecified), the z-score is 0.312. With `COc1cccc(NC(=O)Cn2nc(Cc3cccnc3)c3ccccc3c2=O)c1`, the z-score is -0.225. As for `COc1ccc(C(=O)NCC(=O)NCC2COc3ccccc3O2)cc1` (stereo unspecified), the figure is 1; as for `CC(C)(C)CC(=O)NC(=S)Nc1ccccc1C(F)(F)F`, 0.863; as for `COc1cc2c(cc1OC)C1=C(C#N)COCN1CC2`, -0.655. In the case of `COC(=O)c1ccc(NC(=O)CSCc2ccc(C)cc2)cc1`, the z-score was -0.584. In the case of `CC(C)C(C(=O)Nc1ccc2c(c1)OCCO2)N1C(=O)c2ccccc2C1=O` (stereo unspecified) it was -0.604; in that of `Cc1ccc(OCCn2nc3ccccc3n2)c(C)c1`, 0.049; in that of `O=C(Nc1ccc(Cl)c(Cl)c1)C1CC(=O)N(c2ccc(Br)cc2)C1` (stereo unspecified), -0.168.

For `Cc1ccc2nc(-c3ccccc3)nc(SC(C)C(=O)NCc3cccs3)c2c1` (stereo unspecified), the z-score is -0.0563.

`Cc1ccc(S(=O)(=O)NC(C)C(c2cccs2)N2CCN(C)CC2)cc1` (stereo unspecified) showed a z-score of 1.04. Turning to `O=C(Nc1cccc(F)c1)/C(=C\c1ccco1)NC(=O)c1cccs1`, the z-score came to 0.213. On to `CCOc1ccc(C=NC23CN4CN(CN(C4)C2)C3)cc1`, for which the z-score is -0.226.

As to `CCOc1cc2[nH]c(=O)n(Cc3ccccc3)c(=O)c2cc1OCC`, the z-score was -0.0356. For the molecule `O=C(NC1CCCCC1)C1CC(=O)N(CCc2ccccc2)C1` (stereo unspecified), the z-score was -0.403. On to `CCOC(=O)c1c(-c2cccc([N+](=O)[O-])c2)csc1NC(=O)C1CC1`, for which the z-score amounted to 0.00633. For `O=c1[nH]c2ccccc2c(=O)n1CCCO`, the z-score amounted to 0.573. As for `CC(C)(CNC(=O)c1ccc([N+](=O)[O-])c(Cl)c1)CNC(=O)c1ccc([N+](=O)[O-])c(Cl)c1`, the z-score is -0.409. Take `COc1ccc(C2Nc3ccccc3C(=O)N2Cc2ccccc2)cc1Cn1nnc2ccccc21` (stereo unspecified): the z-score is -0.344.

As for `O=c1cc(-c2ccc(Cl)c(Cl)c2)[nH][nH]1`, the z-score was -0.0977.

For `CN(C)S(=O)(=O)c1ccc(C(=O)Nc2nnc(Cc3ccccc3)s2)cc1`, the z-score was -0.271.

Regarding `O=C(O)CN1C(=O)C2(OCCCO2)c2ccccc21`, the z-score is 0.0511. In the case of `CCCCOc1ccc(C(=O)N/C(=C\c2cccc([N+](=O)[O-])c2)C(=O)OC(C)C)cc1` it was 0.536; in that of `CC(C)CNc1oc(-c2ccc(F)cc2)nc1C#N`, 0.561. `O=c1c2ccccc2nc(SCc2ccccc2F)n1C1CCCC1` displayed a z-score of 0.17. For `Cc1cc(=O)c2ccccc2s1`, the z-score was -0.104. Regarding `O=C(O)CCCCCNc1ccc2nsnc2c1[N+](=O)[O-]`, the z-score amounted to 0.14.

For the molecule `CCn1cc(Br)c(C(=O)Nc2ccc(C(=O)OC(C)C)cc2)n1`, the z-score was -0.084. As for `Cn1c(=O)c([N+](=O)[O-])c(NCC(O)c2ccccc2)c2ccccc21` (stereo unspecified), the figure is 0.0997. On to `Cc1nc(NC(C)C(=O)O)c2nc(C)oc2n1` (stereo unspecified), for which the z-score is -0.0905. In turn, `Cc1nn(C(=O)c2cccs2)c(C)c1CN1C(=O)c2ccccc2C1=O` registered a z-score of 0.128. In turn, `CCCCC(=O)Nc1nc(C)c(-c2csc(Nc3ccc(Cl)cc3)n2)s1` had a z-score of 0.158. `CC(C)c1nc(SCC(=O)NCc2ccccc2)n[nH]1`: the z-score was -0.0957. In turn, `CCOC(=O)N1CCC(Nc2c(NCCN3CCN(c4cccc(Cl)c4)CC3)c(=O)c2=O)CC1` showed a z-score of 0.124. Take `COc1cc(C(=O)Nc2sc3c(c2C#N)CCN(C(C)=O)C3)cc(OC)c1OC`: the z-score was -0.727.

As for `O=C(c1ccco1)N1CCN(C(c2ccccc2Cl)c2nnnn2Cc2ccco2)CC1` (stereo unspecified), the z-score is -0.138. On to `CCC1CCCCN1C(=O)CCCOc1ccccc1` (stereo unspecified), for which the z-score is -0.368.

As for `Cc1ccccc1NC(=O)N(CCc1nc2ccccc2[nH]1)Cc1ccccc1`, the z-score was -0.292. For the molecule `Cc1ccc(S(=O)(=O)N(CC(O)CN2CCCCC2)c2ccccc2)cc1` (stereo unspecified), the z-score is -0.627. With `O=C(Nc1ccon1)c1ccccc1F`, the z-score came to 0.0509.

`Cc1cccc(NS(=O)(=O)c2cc(C(=O)N3CCCC3)ccc2Cl)c1` showed a z-score of 0.379. Regarding `O=C(CSc1ccccc1)NCCSCc1ccccc1`, the z-score was -0.635. For the molecule `N/C(=N\OC(=O)c1cccc2ccccc12)c1ccc(Br)cc1`, the z-score was found to be 0.158. In the case of `Cc1ccc(-c2c3c(nc4sc(C(N)=O)c(N)c24)CCC3)cc1` it was 0.883; in that of `COC(=O)COc1ccc(=O)n(-c2ccccc2)n1`, -0.129; in that of `Cc1ccc(C)c(N2CCN(C(=O)c3cc4ccccn4n3)CC2)c1`, -1.77. `COc1ccc(C(=O)CSc2ncn[nH]2)cc1OC` yielded a z-score of 0.0627. Consider `COc1cc(/C=N/NC(=O)C(C)Nc2n[nH]c(=O)[nH]c2=O)cc(OC)c1O` (stereo unspecified), for which the z-score is -0.347. The molecule `O=C(Nc1cccc(S(=O)(=O)N2CCCCC2)c1)c1ccccc1NS(=O)(=O)c1ccc(F)cc1` registered a z-score of 0.0356. In turn, `CCOC(=O)CCCNS(=O)(=O)c1c(C)ccc2nsnc12` yielded a z-score of 1.23.

As for `Cc1cc(C)c(NC(=O)COC(=O)c2cccc3c2C(=O)c2ccccc2C3=O)c(C)c1`, the z-score was -0.5. As for `Cc1cc(C)nc(SCC(=O)Nc2ncc(C(F)(F)F)cc2Cl)n1`, the z-score is -0.327. Consider `O=C(c1ccccc1)N1CC(COc2ccccc2)OC(c2cccnc2)O1` (stereo unspecified), for which the z-score is -0.0143. On to `COC(=O)c1ccccc1NC(=O)Cc1ccccc1OC`, for which the z-score is -0.94.

For the molecule `CN(C)C(=O)CCc1nc2sc3c(c2c(=O)[nH]1)CCCC3`, the z-score was -0.215. As for `CC1CCCN(C(=O)COC(=O)c2n[nH]c3ccccc23)C1` (stereo unspecified), the z-score is -2.57.

For `COCCCn1c(C)nnc1SCC(=O)NCc1ccco1`, the z-score was -0.305.

Regarding `CC1CN(CCCCOc2ccc3ccccc3c2)CC(C)O1` (stereo unspecified), the z-score was 0.362. As to `CSc1cccc(NS(=O)(=O)c2cccs2)c1`, the z-score is 0.381. For `Cc1ccc(CSC2=Nc3ccccc3C3=NC(CCC(=O)NCc4ccco4)C(=O)N23)cc1` (stereo unspecified), the z-score was -0.342.

In the case of `CCN(c1cccc(C)c1)S(=O)(=O)c1ccc2c(c1)CCN2C(C)=O`, the z-score worked out at 0.111. As for `Cc1cc(C(=O)CSc2nnc(N)s2)c(C)n1Cc1cccs1`, the z-score was -0.225. `CCC(C)Nc1nc(OC)nc(N(C)C#N)n1` (stereo unspecified) displayed a z-score of 0.227.

These data come from PubChem BioAssay AID488969 (Vanderbilt High Throughput Screening Facility, 2010).
